From publication PMC4336329 (PLoS ONE, 2015)
Hit rate of the full screen: of about 310,000 compounds, about 14,000 (4.5%) showed an effect of 50% or more. Effects have a minus sign here. This is one part of the list.

molecular target: human ether-à-go-go-related gene (hERG) potassium channel (human, UniProt Q12809); assay: primary screen, population patch clamp on CHO cells stably expressing hERG
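Further: peak tail current of the secondary pulse compared with the same well before compound.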

Sequence of human ether-à-go-go-related gene (hERG) potassium channel (Q12809 whole entry, looked up): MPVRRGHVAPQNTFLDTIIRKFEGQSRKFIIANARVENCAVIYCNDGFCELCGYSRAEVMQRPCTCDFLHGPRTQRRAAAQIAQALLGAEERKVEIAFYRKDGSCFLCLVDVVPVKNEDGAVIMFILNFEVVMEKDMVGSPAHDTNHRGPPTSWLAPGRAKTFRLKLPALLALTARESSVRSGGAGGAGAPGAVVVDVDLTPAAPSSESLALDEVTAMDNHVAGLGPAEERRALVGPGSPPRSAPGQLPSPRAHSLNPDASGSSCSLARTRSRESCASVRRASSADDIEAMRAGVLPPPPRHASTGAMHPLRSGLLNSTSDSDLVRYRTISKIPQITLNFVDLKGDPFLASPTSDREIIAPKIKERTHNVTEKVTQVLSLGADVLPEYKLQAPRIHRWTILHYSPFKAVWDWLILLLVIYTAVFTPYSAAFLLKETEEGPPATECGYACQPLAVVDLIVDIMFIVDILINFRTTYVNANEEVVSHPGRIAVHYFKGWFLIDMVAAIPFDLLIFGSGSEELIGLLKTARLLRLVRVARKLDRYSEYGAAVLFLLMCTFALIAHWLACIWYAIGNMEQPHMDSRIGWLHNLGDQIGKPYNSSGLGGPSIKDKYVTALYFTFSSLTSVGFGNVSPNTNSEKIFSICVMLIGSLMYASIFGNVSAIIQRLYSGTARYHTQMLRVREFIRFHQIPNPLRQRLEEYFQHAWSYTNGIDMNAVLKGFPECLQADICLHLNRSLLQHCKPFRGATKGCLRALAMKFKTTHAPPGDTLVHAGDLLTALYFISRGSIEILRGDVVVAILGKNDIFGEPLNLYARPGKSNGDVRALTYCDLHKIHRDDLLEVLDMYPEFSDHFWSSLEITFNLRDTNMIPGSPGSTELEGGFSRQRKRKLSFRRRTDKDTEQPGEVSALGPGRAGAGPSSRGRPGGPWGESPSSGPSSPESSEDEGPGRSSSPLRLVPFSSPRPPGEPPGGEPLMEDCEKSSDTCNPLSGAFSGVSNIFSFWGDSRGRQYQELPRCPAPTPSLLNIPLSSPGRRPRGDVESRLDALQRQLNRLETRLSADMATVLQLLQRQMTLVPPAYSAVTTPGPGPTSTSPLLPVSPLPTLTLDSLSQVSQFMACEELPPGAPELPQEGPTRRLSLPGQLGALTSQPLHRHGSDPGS

| Compound | hERG current change (%, negative = inhibition) at 10uM |
| --- | --- |
| CCn1c(SCC(=O)Nc2nc(C)c(C)s2)nnc1-c1cccs1 | -73.4% |
| O=C(COC(=O)c1c[nH]c(=O)[nH]c1=O)Nc1cccc([N+](=O)[O-])c1 | 1.39% |
| O/N=C1\CC2(Cc3nonc31)OCCO2 | 16.6% |
| CC1CCCCN1C(=O)C1COc2ccccc2O1 (centres unmarked) | 13.5% |
| O=Cc1c(N2CCN(c3cccc(Cl)c3)CC2)nc2ccccn2c1=O | -42.4% |
| Cc1onc(-c2ccccc2)c1C(=O)N/N=C/c1ccc(Br)cc1 | 9.02% |
| O=C(Nc1ccc2c(c1)OCO2)C1CCCN(S(=O)(=O)c2cccs2)C1 (centres unmarked) | 10.7% |
| O=C1CN(C(=O)c2ccc(Cl)nc2)c2ccccc2N1 | 21.3% |
| CN1C(c2ccccc2)=NO[C@]1(C)c1ccccc1 | -1.7% |
| Cc1cc(N2CCN(c3ccccc3)CC2)nc(-c2ccccc2O)n1 | 6.15% |
| NS(=O)(=O)c1ccc(NC(=O)CSc2nnc(C3CC3)n2C2CC2)cc1 | 22% |
| CCc1ccc(CCC(=O)Nc2sc3c(c2C#N)CCCC3)o1 | 6.21% |
| COc1cc2nc(SCc3c(C)noc3C)n(CCC3=CCCCC3)c(=O)c2cc1OC | 16% |
| CCOc1cc(Cl)c(NC(=O)c2ccco2)cc1OCC | 19.9% |
| CCOc1ccc(N2C(=O)c3ccccc3C2=O)cc1 | 13.7% |
| c1ccc(Nc2ncnc3sccc23)cc1 | 10.4% |
| CC(C)CC(=O)Nc1ccc(C(=O)Cn2nc(C(=O)O)c3ccccc3c2=O)cc1 | -26% |
| CN(C)c1ccc(CN(C(=O)COc2ccccc2)C2CCS(=O)(=O)C2)cc1 (centres unmarked) | -10.9% |
| COc1cc(NC(=O)C2CCN(S(=O)(=O)c3cccc4nonc34)CC2)cc(OC)c1 | 9.67% |
| CCOC(=O)C1CCN(C(=O)CC(NS(=O)(=O)c2ccc(OC)cc2)C(C)C)CC1 (centres unmarked) | -8.36% |
| Cc1ccc(S(=O)(=O)N2CCCC(C(=O)NCCC3=CCCCC3)C2)cc1 (centres unmarked) | -4.03% |
| O=C(Nc1cccc2ncccc12)c1ccco1 | 27% |
| N/C(=N\OC(=O)c1ccc(F)cc1)c1ccc(Br)cc1 | 15.4% |

| Compound | hERG current change (%, negative = inhibition) at 10uM |
| --- | --- |
| CCOC(=O)c1cc([N+](=O)[O-])sc1NC(=O)c1ccc(S(=O)(=O)N2CC3(C)CC2CC(C)(C)C3)cc1 (centres unmarked) | 0.391% |
| Cc1cccc(OCC(O)Cn2c(=N)n(Cc3ccccc3)c3ccccc32)c1.Cl (centres unmarked) | -71% |
| O=C(Cn1nc(-c2ccccc2)c2ccccc2c1=O)NCCO | 10% |
| CCC(CO)N=CC1=C(O)C(C(=O)c2ccccc2)CCC1=O (centres unmarked) | 4.2% |
| COc1c(N2CCN(C(=S)Nc3ccccc3F)C(C)C2)c(F)cc2c(=O)c(C(=O)O)cn(C3CC3)c12 (centres unmarked) | -8.57% |
| CS(=O)(=O)N1N=C(c2ccco2)CC1c1ccco1 (centres unmarked) | 1.13% |
| Nc1nnc(Cc2cccc(Br)c2)s1 | 3.51% |
| Cc1ccc[n+](CC(=O)c2ccc(Br)cc2)c1.[Br-] | -4.27% |
| CCCCc1nc2cc(C(=O)NCCc3cnn(C)c3)ccc2o1 | 4.17% |
| Cc1cccc(-c2nc(CS(=O)CC(=O)NC3CCCCC3)c(C)o2)c1 (centres unmarked) | -3.93% |
| O=C(/C=C/c1ccc(Cl)cc1Cl)c1nc2ccccc2[nH]1 | 27.8% |
| O=C(CCCOc1ccccc1)N1CCN(c2ccccn2)CC1 | -8.9% |
| CCOc1ccc(CCNC(=O)CN2C(=O)c3cccnc3Oc3ccc(Cl)cc32)cc1 | -17.7% |
| Cc1cnc(C(=O)Nc2ccc3c(c2)CCC3)cn1 | 6.1% |
| Cc1cccc(C)c1OCC(O)CNC(C)(C)C.Cl (centres unmarked) | 10.4% |
| O=[N+]([O-])c1ccc(N2CCCCC2)cc1N1CCOCC1 | -11.3% |
| CC(Oc1ccc(Cl)cc1Cl)C(=O)NNC(=O)C(=O)N1CCCC1 (centres unmarked) | 2.52% |
| Cc1ccc(C)c(NC(=O)Nn2cnnc2)c1 | 7.96% |
| O/N=C1\CCCc2nnc3c(c21)CCCC3 | 15.8% |
| Br.Cn1c(=N)n(CC(=O)C(C)(C)C)c2ccccc21 | -31% |
| Cc1c(C(=O)CN2CCCC(C)(C)C2)c2ccccc2n1C | 1.31% |
| O=C(Nc1ccc2ncccc2c1)c1ccccc1 | 10.4% |
| CC1(C)C/C(=N/Nc2ccc([N+](=O)[O-])cc2[N+](=O)[O-])C(C)(C)O1 | 6.56% |

| Compound | hERG current change (%, negative = inhibition) at 10uM |
| --- | --- |
| Cc1cccc(C(=O)N2CCN(c3ccccn3)CC2)c1 | 5.4% |
| CCOC(=O)c1ccc(NC(=O)C2C3C=CC(O3)C2C(=O)O)cc1 (centres unmarked) | 7.63% |
| Cc1cccc(-c2nnc(SCC(=O)Nc3ncccn3)n2C)c1 | 1.62% |
| CCN1C(=O)c2cccc3c(NC(=O)c4cccc(N5C(=O)CCC5=O)c4)ccc1c23 | -6.22% |
| O=C(c1ccc(Br)o1)N1CCC(c2nc3ccccc3[nH]2)CC1 | -36.5% |
| O=C(O)CSC12CC3CC(C1)CC(C(=O)O)(C3)C2 | 18.1% |
| COc1ccc(C2C(C#N)=C(N)N(c3cccnc3)C3=C2C(=O)CC(C)(C)C3)cc1OC (centres unmarked) | -4.55% |
| Cc1ccc(S(=O)(=O)N2CCCCC2C(=O)N(C)c2ccccc2)cc1 (centres unmarked) | -0.169% |
| Cc1noc(C)c1COc1cccc(C(=O)N2CCN(C/C=C/c3ccccc3)CC2)c1 | -31.1% |
| COc1ccc(CNC(=O)c2ccc(NC(=O)C3CCCO3)cc2)cc1 (centres unmarked) | -4.91% |
| CN(C)C(CNC(=O)Cc1ccc(Br)cc1)c1ccccc1 (centres unmarked) | -17.8% |
| Cc1cccc(NNC(=O)C2CCC2)c1 | -1.35% |
| COc1cccc(-c2c(NC(=O)c3ccco3)oc3ccc(Cl)cc3c2=O)c1 | 9.72% |
| CCC1CCCCN1C(=O)CSc1nnc(-c2c[nH]c3ccccc23)o1 (centres unmarked) | 7.07% |
| C/C(=N\O)c1oc2ccc3c(C)cc(=O)oc3c2c1C | 7.94% |
| O=C(Nc1ccc(Oc2ncnc3cc(Cl)ccc23)nc1)c1cccs1 | 6.53% |
| Cc1cc(-c2nnc(CCC(=O)N3CCN(Cc4cccnc4)CC3)o2)c(C)o1 | 0.364% |
| CCOC(=O)N1CCN(C(=O)CNC(=O)c2nn(-c3ccc(OC)cc3)c(=O)c3ccccc23)CC1 | -6.53% |
| O=C(Nc1ccc(OC(F)(F)C(F)F)c(NC(=O)c2cccc(F)c2)c1)c1cccc(F)c1 | 2.42% |
| COC(=O)C1(CCSC)NC(c2ccc(OC)cc2OC)C2C(=O)N(c3cccc(C(C)=O)c3)C(=O)C21 (centres unmarked) | 0.658% |
| CN(C(=O)c1ccc(-c2nn(C)c(=O)c3ccccc23)cc1)c1ccccc1 | -14.8% |
| Cc1ccc(Cc2c(C)c(C#N)c3[nH]c4ccccc4n3c2=O)cc1 | 11.4% |
| CN(CC(=O)NCCN1CCCCCC1)S(=O)(=O)c1cccc2nsnc12 | -3.32% |

| Compound | hERG current change (%, negative = inhibition) at 10uM |
| --- | --- |
| O=C(CSc1cccc2cccnc12)OCC(=O)c1ccc(Br)cc1 | 4.26% |
| COc1ccc(NC(=O)CSc2nccn2Cc2ccccc2)cc1 | -4.86% |
| O=C(O)CC(c1ccccc1)N1C(=O)c2cccc([N+](=O)[O-])c2C1=O (centres unmarked) | 22.8% |
| Br.CCO.NCCCCCC(=O)OC1N=C(c2ccccc2Cl)c2cc(Br)ccc2NC1=O (centres unmarked) | -11.6% |
| O=C(CSc1nnc(NC(=O)c2ccccc2F)s1)NC1CC1 | 19.2% |
| Cc1cc(S(=O)(=O)N(Cc2ccc(F)cc2)CC2CCCO2)ccc1-n1cnnn1 (centres unmarked) | -47.6% |
| CC1(c2ccccc2)NC(=O)N(CC(=O)Nc2cc(Cl)ccc2N2CCOCC2)C1=O (centres unmarked) | -12% |
| CCCNc1ncccc1C(N)=O | 7.62% |
| O=CNc1ccc(S(=O)(=O)NCc2ccccc2)cc1 | -26.1% |
| CCN(Cc1ccccc1)C(=O)CN1C(=S)NC(C)(C)CC1C (centres unmarked) | -30.5% |
| CCOC(=O)C1(C(=O)OCC)CC1c1ccccc1 (centres unmarked) | 3.98% |
| O=C1CN(C(=O)CSc2nc3cc(Cl)ccc3c(=O)n2Cc2ccccc2)c2ccccc2N1 | -7.33% |
| CN1CCN(C(=S)c2cn(CCOc3ccccc3F)c3ccccc23)CC1 | 7.01% |
| O=C(CN1C(=O)CSc2ccc(S(=O)(=O)N3CCOCC3)cc21)NCCCN1CCCCC1 | 18% |
| CC(=O)NC1c2ccccc2C(=O)N1Cc1ccccc1 (centres unmarked) | -8.06% |
| CCc1noc(C)c1C(=O)Nc1ccc(S(=O)(=O)N2CCCC(C)C2)cc1 (centres unmarked) | -12.1% |
| Cc1ccc(C)c(NC(=O)C2CC(Cl)=CCC2C(=O)O)c1 (centres unmarked) | 5.5% |
| O=C(N/N=C/c1cccc(OC(=O)c2ccco2)c1)c1ccc(F)cc1 | -8.56% |
| Cc1cccc(C)c1NC(=O)C1(NC(=O)c2cnccn2)CCCCC1 | 14.4% |
| COc1ccccc1NC(=O)C(C)N1C(=O)C2CCCCC2C1=O (centres unmarked) | 14.1% |
